Source: the supplement of paper PMC3334620
The full ranking holds about 33,000 sequences; the median of “E-score (-0.5 to 0.5)” is about -0.054, and the highest 2% start at about 0.39. Some of the results follow.

molecular target: Ylr278c (UniProt Q05854); assay: PBM E-score (8-mer binding enrichment) (E-score (-0.5 to 0.5)); higher = stronger / more preferred TF binding; most listed sequences are background and not binding sites; conditions: protein concentration: 200 nM; construct: GST-DNA-binding domain
In short: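 E-scores (a modified Wilcoxon-Mann-Whitney statistic) were assigned by the Universal PBM Analysis Suite to every ungapped eight-base word pooled with its reverse complement. The input came from universal all-10-mer Agilent arrays made double-stranded by primer extension and probed with GST-tagged yeast transcription factors at about 100-200 nM. Fluorescent anti-GST detected bound protein, and masliner normalised the scans.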

Sequence | PBM E-score
CCAACTTC | -0.111
ACCCCCAG | -0.27
GTGAATTA | -0.0303
CTTAGAGC | -0.0931
AGCTTCCA | 0.0154
ACAGAGGT | -0.333
CGTTGAAC | 0.0582
GGGTGGTA | -0.0396
AGCGATAA | 0.104
ACAGGCCT | -0.163
CGTAACAC | -0.0228
ACACGTAC | -0.197
CAACGGTC | -0.00498
AGAGGCGA | -0.283
AGAGGCAA | -0.0402
GAGCAATC | 0.106
GGAGGCCA | 0.123
ACCTTCTA | -0.186
GCCCCATA | -0.0325
GCTAGGAA | -0.191
CCTACGCG | 0.047
AGTGCTCG | -0.139
CCAACAGA | -0.147
CACCTACC | -0.106
CAGAAAAA | -0.161

Sequence | PBM E-score
AGCGGGGA | 0.206
CGGGTTTA | 0.356
ACACCGCT | 0.00228
CATTCTAG | -0.392
ATCTCGAG | -0.0814
GGGCTAAA | 0.137
CTCGTGAC | -0.14
ACGACCAA | -0.17
GGACCTAC | 0.125
CACAGAGG | -0.233
ACACTTCG | -0.124
CCTGGCCG | -0.0118
AAATTTCT | -0.0984
CCTATGCA | -0.217
GCTTGGAA | -0.112
AGGTAATG | 0.114
AATTTAAA | 0.0714
ATTAAATA | 0.0934
ATACAGGC | -0.16
CCTGCAAC | -0.279
ATTATCAG | -0.0735
AGATGTAC | -0.209
AGGGTAAC | -0.22
CGATGAGA | 0.0144
CCTATGTA | -0.251

Sequence | PBM E-score
AGCAGGTA | -0.107
GTATAGAC | -0.087
ACCAAGGC | -0.0919
CGCAAACG | 0.0438
CAAACCGG | 0.287
CGGCGCTA | 0.163
GCAGATGA | -0.064
GCTCTGAA | -0.289
ATCCGGGA | 0.332
AGTGTCCG | 0.272
ATAGTCAC | -0.153
AGGATATC | -0.0439
AAGGTCCC | -0.138
ACGGTAAC | 0.0974
ACGAATCT | -0.113
GCCACAAA | -0.0336
CAGACCGA | 0.15
CTTGATCA | -0.0711
CGATTCAA | -0.0611
ATCACACC | 0.132
CATGTGGA | -0.145
GGGCTCAC | -0.0724
ACCAGGTC | -0.011
AGACGAAC | -0.185
CTCTACAC | -0.136

Sequence | PBM E-score
GGTCGGAA | 0.338
AGGACGTA | -0.126
ATGCACAG | -0.214
AAAACAGG | -0.221
CAGTCAAC | -0.246
CAGTTTTC | -0.00053
AGCCTGAG | -0.368
AGACAACC | 0.101
AATGTCAA | -0.0519
CATTAAGA | -0.311
ACATAAAG | -0.0765
AGCAGCCC | -0.119
GGGCTCTA | -0.0272
TATGCAGA | -0.196
ACAGGTTC | -0.235
AAGTAGGA | -0.313
CGATACCG | 0.147
CCCATCGA | -0.177
GTAAGTGA | -0.0628
CGATATGA | -0.0469
ACTTGCTA | -0.123
CTCCTCCC | 0.0194
AATTGCTA | -0.0851
ACCCCCGT | 0.133
CCTTACGC | -0.0842

Sequence | PBM E-score
AATTACTA | -0.0423
CATATTAC | -0.0175
CATACTCC | 0.339
AGTTGCTG | -0.044
AAGATACG | -0.00117
CGCATAAG | -0.00895
GCTGAAAC | 0.061
AATGCTGG | 0.0448
AGACTCGC | -0.0408
ACGGGGCA | 0.00354
ATGAGTCG | -0.207
GACAGCTA | -0.323
ATTCTGGG | -0.105
CCCGCGGA | 0.409
AAACCAAG | -0.111
ATACCAAC | -0.0752
AATTGCTG | 0.0356
ACACGGCT | 0.0922
CCCTTGCA | -0.207
GGAGACGA | 0.241
GCCATGAA | -0.0869
CATACGCG | 0.0999
ATGCGGCC | -0.0109
GTCAGACA | -0.166
CGGCCACC | 0.27

Sequence | PBM E-score
TAACCCCA | 0.0189
GCATCGAC | -0.19
CCAATGAC | -0.323
GATCGTTA | -0.0309
CCAGGCGA | -0.213
ATCAGCTG | -0.148
CTTCCGAA | 0.371
TCCTAAAA | -0.127
CACCAGAA | -0.277
AGGACACA | -0.0917
GATGACGA | -0.207
CGCCAGAA | 0.00671
CATTCCAA | -0.174
TTAGGAAA | -0.204
CTAGAAGA | -0.136
AAGCTCCA | -0.18
ACCGGCCC | 0.251
AGGAATAC | -0.0793
TGGGGCAA | -0.228
CGGGTATC | 0.0993
GCGGTCGA | 0.188
ATACACAG | -0.21
GGGTTATA | -0.0437
CATAAAGC | -0.265
ATATTTAG | -0.0675

Sequence | PBM E-score
GATCCGGA | 0.439
ATAGCATC | -0.158
AATTTCGC | 0.182
ATACGGCG | 0.263
CAGGACAA | 0.0271
GAAAATCA | 0.0185
CCGTACGA | 0.0173
CCGGCCGC | 0.327
CCCACGTA | -0.213
AGTCATGC | -0.146
CTTCACCA | -0.159
ACACTCAG | -0.128
AGGAAATA | 0.0859
ACAGTGTC | -0.211
TGTCAAAA | -0.0835
AATTGTAT | -0.0535
ATTTTGGA | 0.168
CACTTCCC | 0.0266
AAAAAAGG | 0.1
CTGAAATC | 0.0679
CTCTAGGA | -0.208
AGCCCTGA | -0.159
